Source: PubChem BioAssay AID1460 (National Center for Advancing Translational Sciences (NCATS), 2008)
Among all 270,000 compounds or so, about 5,800 (2.1%) were called active. The shares of active, inactive and inconclusive entries below differ from those in the screen. Calls follow the shape of the dose curve; as a rule, active = well fitted inhibition curve with a large enough effect; inconclusive = small, poorly fitted or top-dose-only effect; inactive = flat fitted curve, though single readings scatter. Potencies of inconclusive entries are doubtful fits and often do not repeat.

Target: Microtubule-associated protein tau (Homo sapiens) (UniProt P10636)
Assay: qHTS for Inhibitors of Tau Fibril Formation, Thioflavin T Binding; also: nearly all actives have a fitted effect of over 55% in size
Details: recombinant tau K18 P301L (four-repeat tau fragment), heparin-induced fibrillization, ThT fluorescence; series mostly up to 57.4 µM; activity, negative = inhibition: at the top concentration
Method in brief: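 Recombinant human tau K18 fragment […] carrying P301L, 15 uM unlabeled plus 0.24 uM Alexa 594-labeled, was fibrillized with 20 uM heparin in 100 mM sodium acetate pH 7 for 6 hr at 37 C; 30 uM ThT fluorescence read after 1 hr.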
% is scaled to controls: 0 for no effect and ±100 for the full control effect; potency is read from the fitted curve at half-maximal effect; tags tell the direction and shape of the fitted curve.

Sequence of UniProt P10636 (P10636 whole entry, looked up): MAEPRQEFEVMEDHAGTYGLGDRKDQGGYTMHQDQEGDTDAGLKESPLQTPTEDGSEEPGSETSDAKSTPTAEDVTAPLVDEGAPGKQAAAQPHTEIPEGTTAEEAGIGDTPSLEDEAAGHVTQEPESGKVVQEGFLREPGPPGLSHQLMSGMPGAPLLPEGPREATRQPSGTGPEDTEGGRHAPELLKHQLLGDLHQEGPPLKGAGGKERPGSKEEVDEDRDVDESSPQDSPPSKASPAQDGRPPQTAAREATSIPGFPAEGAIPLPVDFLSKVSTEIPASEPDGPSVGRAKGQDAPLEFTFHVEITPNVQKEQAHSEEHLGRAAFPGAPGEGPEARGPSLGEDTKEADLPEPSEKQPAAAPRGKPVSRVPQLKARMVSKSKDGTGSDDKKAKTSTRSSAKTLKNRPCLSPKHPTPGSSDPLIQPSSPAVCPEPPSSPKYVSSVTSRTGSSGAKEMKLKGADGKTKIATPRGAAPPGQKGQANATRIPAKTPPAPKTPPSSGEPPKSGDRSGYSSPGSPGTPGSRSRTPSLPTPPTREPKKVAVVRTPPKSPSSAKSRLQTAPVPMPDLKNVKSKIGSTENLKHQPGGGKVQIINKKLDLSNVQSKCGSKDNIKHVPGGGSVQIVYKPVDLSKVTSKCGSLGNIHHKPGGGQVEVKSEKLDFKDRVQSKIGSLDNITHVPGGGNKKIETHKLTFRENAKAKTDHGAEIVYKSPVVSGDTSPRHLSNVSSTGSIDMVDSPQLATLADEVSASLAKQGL

Compound	activity, negative = inhibition	Potency
O=C(NCc1ccccc1F)c1cc2ccccn2n1	inactive: -2.89%	–
C=C(C)c1cccc(C(C)(C)NC(=O)Nc2ccc(C(C)=O)cc2)c1	–	inconclusive: 25.1 µM [inhibitor, single point]
CC(=O)C1=C(C)OC(N)=C(C#N)C1c1cccc([N+](=O)[O-])c1 (configuration not stated)	–	inconclusive: 28.2 µM [inhibitor, single point]
Cc1[nH]c(=O)[nH]c(=O)c1/C=N/NC(=O)[C@H](C)N	inactive: 3.47%	–
COc1ccc(CCNc2oc(COc3ccc(F)cc3)nc2C#N)cc1	–	inconclusive: 5.01 µM [inhibitor, partial curve]
Cc1cc(SCC(=O)NCc2ccccc2Cl)nc(=O)[nH]1	inactive: 1.6%	–
COc1ccc(CNC(=O)c2ccc(NC(=O)N3CCCCc4ccccc43)cc2)c(OC)c1	inactive: 1.69%	–
Cc1ccc(NC(=O)C2CCCN2S(=O)(=O)c2cccc3nsnc23)c(Br)c1 (configuration not stated)	inactive: -6.43%	–
Cc1ccc2cccc(NC(=S)NC(=O)c3ccccc3)c2n1	inactive: -14%	–
COC(C(=O)Nc1cccc([N+](=O)[O-])c1)c1ccccc1 (configuration not stated)	inactive: 1.61%	–
C=CCN1C(=O)C2(NC(=O)c3ccccc3N2)c2ccccc21 (configuration not stated)	inactive: 0.271%	–
Cc1ccc(CN2CCc3nc(N4CCN(c5ccccc5F)CC4)ncc3C2)s1	–	inconclusive: 0.251 µM [inhibitor, full curve, poor fit]
O=C(O)CCc1ccc(-c2ccccc2)o1	–	inconclusive: 20 µM [inhibitor, partial curve]
Cc1nc(N/C(N)=N/S(=O)(=O)c2ccc([N+](=O)[O-])cc2)nc2ccccc12	–	inconclusive: 15.8 µM [inhibitor, partial curve]
COc1cc(C(=O)Oc2ccccc2/C=N/NC(=O)c2ccc(Cl)cc2Cl)cc(OC)c1OC	inactive: -23%	–
Cc1ccc(-c2[nH]n3c(=O)c4c(nc3c2C)CCCC4)cc1	–	inconclusive: 15.8 µM [inhibitor, partial curve]
CCNC(=O)C1=C(O)c2sccc2N(C)S1(=O)=O	inactive: -0.639%	–
CC(=O)Nc1c(C)nn(-c2ccccc2)c1N1CCC(C(=O)Nc2ccc(Cl)cc2C)CC1	inactive: -2.16%	–
COc1cc(NC(=O)CN2C(=O)C(c3ccc(C)cc3)=NC23CCCCCC3)cc(OC)c1	inactive: 7.66%	–
CCOC(=O)CSc1nc2cc(OC)ccc2cc1C#N	–	active: 5.01 µM
COc1ccc(OC)c(NC(=O)CSc2nccn2-c2cc(C)cc(C)c2)c1	inactive: -7.99%	–
OC[C@@H]1[C@@H](c2ccccc2)C(c2ccccc2)=NN1c1ccccc1	–	inconclusive: 14.1 µM [inhibitor, partial curve]
Cc1[nH]n(-c2ccccc2)c(=O)c1-c1cccc(Cl)c1	–	inconclusive: 39.8 µM [inhibitor, single point]
CCOC(=O)c1c(C)[nH]c(C(=O)NNC(=O)c2ccc(C(C)(C)C)cc2)c1C	–	inconclusive: 12.6 µM [inhibitor, partial curve]

Compound	activity, negative = inhibition	Potency
CN(C)c1ccc(NC(=O)CCn2c(=S)oc3ccccc32)cc1	–	inconclusive: 14.1 µM [inhibitor, partial curve]
N#C/C(=C\c1ccccc1[N+](=O)[O-])c1nc(C2CC2)cs1	–	inconclusive: 22.4 µM [inhibitor, partial curve]
O=C(O)c1ccc2c(c1)C(=O)/C(=C\c1ccco1)C2=O	–	active: 11.2 µM
Cc1cc(O)c(C(c2ccccc2)N2CCN(c3ccccc3F)CC2)c(=O)n1Cc1ccco1 (configuration not stated)	–	inconclusive: 11.2 µM [inhibitor, partial curve, poor fit]
CCOc1ccccc1-n1nnnc1SCc1nc2ccccc2s1	inactive: -6.51%	–
O=C(NNC(=S)Nc1ccc(Br)cc1Cl)c1ccncc1	–	inconclusive: 15.8 µM [inhibitor, partial curve]
COc1ccc(-n2c(O)c(/C=N/NS(=O)(=O)c3cccc([N+](=O)[O-])c3)c3ccccc3c2=O)cc1OC	–	inconclusive: 17.8 µM [inhibitor, partial curve]
C=CCOc1ccc(CNc2ccc3[nH]c(=O)[nH]c3c2)cc1OC	–	inconclusive: 15.8 µM [inhibitor, partial curve]
O=C(CON=C1c2ccccc2-c2ccccc21)NC12CC3CC(CC(C3)C1)C2	inactive: -11%	–
O=C(NN=C1CCN(Cc2ccccc2)CC1)c1ccccc1O	–	inconclusive: 28.2 µM [inhibitor, partial curve]
CCOC(=O)c1c[nH]n(-c2ccccc2)c1=O	–	inconclusive: 17.8 µM [inhibitor, partial curve, poor fit]
Cc1ccc(-c2csc(=S)[nH]2)cc1	–	inconclusive: 35.5 µM [inhibitor, partial curve]
Cc1noc(C)c1COC(=O)c1cc2ccccc2cc1O	–	inconclusive: 39.8 µM [inhibitor, single point]
COCCN1Cc2cccc(C(=O)N3CCN(c4cc(C)ccc4C)CC3)c2C1=O	inactive: -18%	–
COc1ccc(Nc2nc(-c3cccs3)cs2)cc1	–	inconclusive: 15.8 µM [inhibitor, partial curve]
O=C(Nc1ccc2c(c1)OCCO2)c1ccc(Br)o1	–	inconclusive: 8.91 µM [inhibitor, partial curve]
COc1ccc(-n2nc3c(c2NC(=O)C(=O)NCc2ccccc2)CSC3)cc1	–	inconclusive: 17.8 µM [inhibitor, partial curve]
Cc1ccc(Cn2c3ccccc3c3cnn(CC(=O)N4CCCCCC4)c(=O)c32)cc1	inactive: -13.8%	–
O=c1cc(CO)oc(C(Nc2ccccn2)c2ccccc2Cl)c1O (configuration not stated)	–	inconclusive: 15.8 µM [inhibitor, partial curve]
CN(C)S(=O)(=O)c1cccc(C(=O)OCC(=O)NC2CCCc3ccccc32)c1 (configuration not stated)	inactive: -9.72%	–
NC(=O)c1ccsc1NC(=O)Cc1ccc([N+](=O)[O-])cc1	–	inconclusive: 22.4 µM [inhibitor, partial curve, poor fit]
Cc1ccc(NC(=O)CN2C(=O)S/C(=C\c3cc(C)n(C)c3C)C2=O)cc1	–	inconclusive: 35.5 µM [inhibitor, single point]
c1ccc2c(c1)ncn2-c1ccc(-c2ccnc(-c3ccncc3)n2)cc1	–	inconclusive: 7.94 µM [inhibitor, partial curve]
CC(C)c1ccc2[nH]c(O)c(N=NC(=S)NCCc3ccccc3)c2c1	–	inconclusive: 5.62 µM [inhibitor, partial curve]

Compound	activity, negative = inhibition	Potency
C/C(=N\NC(=S)NC1CCCCC1)c1cccs1	inactive: 1.95%	–
COc1ccc(NC(NC(=O)c2ccc(OC)cc2)C(Cl)(Cl)Cl)cc1 (configuration not stated)	inactive: -9.4%	–
O=C(/C=C/c1ccco1)OCn1nnc2ccccc2c1=O	inactive: -9.07%	–
O=C(Nc1ccc2nc3n(c(=O)c2c1)CCCC3)c1cc([N+](=O)[O-])ccc1F	–	inconclusive: 12.6 µM [inhibitor, partial curve]
O=C(CSCc1ccc(Cl)cc1)Nc1cc([N+](=O)[O-])ccc1O	–	inconclusive: 12.6 µM [inhibitor, partial curve]
Cc1nc(Nc2ccc(C(=O)O)cc2)nc(Nc2ccc(C(=O)O)cc2)c1[N+](=O)[O-]	–	inconclusive: 28.2 µM [inhibitor, partial curve, poor fit]
c1csc(C2Nc3ccccc3-c3nc4ccccc4n32)c1 (configuration not stated)	–	inconclusive: 15.8 µM [inhibitor, partial curve]
O=C(Cn1c2ncccc2c(=O)n1-c1ccccc1)Nc1cccc(C(F)(F)F)c1	inactive: -4.56%	–
COc1cccc(CNC(=O)CCCn2c(=O)c3cccn3c3ccc(F)cc32)c1OC	inactive: 7.34%	–
CCSc1nnc(NC(=O)CSc2nncc(=O)n2N)s1	–	inconclusive: 25.1 µM [inhibitor, single point]
Cn1c(=O)cc(SCC(=O)NCCc2ccc(Cl)cc2)c2cc(Cl)ccc21	inactive: -5.19%	–
CCc1ccc2oc(C(=O)N(Cc3cccc(Cl)c3)Cc3ccco3)c(C)c2c1	inactive: -14.9%	–
COc1ccc(NC(=O)CN2CCN(c3nc(-c4ccc(F)cc4)cs3)CC2)c(OC)c1	–	inconclusive: 25.1 µM [inhibitor, single point]
CCOC(=O)C1CCN(C2=C(NS(=O)(=O)c3ccc(Cl)cc3)C(=O)c3ccccc3C2=O)CC1	–	inconclusive: 11.2 µM [inhibitor, partial curve]
CCOc1ccc(-c2nc(CSCC(=O)NCCc3ccccc3)c(C)o2)cc1	–	inconclusive: 17.8 µM [inhibitor, partial curve, poor fit]
CCN1CCN(c2cc(C)c3cc(NC(=O)c4cc(OC)c(OC)c(OC)c4)ccc3n2)CC1	–	inconclusive: 11.2 µM [inhibitor, partial curve]
O=[N+]([O-])c1ccc(N2CCN(S(=O)(=O)c3ccc4ccccc4c3)CC2)cc1NCC1CCCO1 (configuration not stated)	–	inconclusive: 2.82 µM [inhibitor, partial curve]
COc1cc(Br)cc(C=Nc2cccc(C(F)(F)F)c2)c1O	–	active: 14.1 µM
CN1C(=O)S/C(=C/c2cccn2-c2cccc(C(=O)O)c2)C1=O	inactive: -0.326%	–
C=CCN(C(=O)CCC(=O)O)C1CC(=O)N(c2ccc(OCCC)cc2)C1=O (configuration not stated)	inactive: -6.27%	–
O=C1c2cccc3cccc(c23)C(=O)N1CCN1CCN(CC(O)COc2ccc3ccccc3c2)CC1 (configuration not stated)	–	inconclusive: 15.8 µM [inhibitor, partial curve]
CCOC(=O)C1CCN(c2csc3ccc(C)cc3c2=O)CC1	–	inconclusive: 11.2 µM [inhibitor, partial curve]
CC(C)(C)OC(=O)N1CCC(c2c(C(=O)N3CCN(c4ccccc4F)CC3)cnn2C(C)(C)C)CC1	inactive: -8.98%	–
CCN(CC)CCCC(C)Nc1nc(C)cc(Nc2ccc3nc(C)cc(N)c3c2)n1 (configuration not stated)	–	inconclusive: 14.1 µM [activator, partial curve]
